Source: PubChem BioAssay AID488969 (Vanderbilt High Throughput Screening Facility, 2010)
Over roughly 110,000 compounds, “z-score” has its median near -0.1; the highest 2% begin near 2. The list shows a part of the results. The source made the active and inactive calls.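 The calls were made as follows: active = z-score in the third read window above 3 or below -3; inactive = the rest.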

The compounds below were run against Metabotropic glutamate receptor 8 (Rattus norvegicus) (UniProt P70579) (assay: mGluR8 Gi/Go-coupled signaling modulation – cell-based, rat, thallium flux, HTS, primary screen (AID 488969)). Conditions: HEK293 rat mGluR8, GIRK (G protein-gated inwardly rectifying potassium channel) thallium flux, FluoZin2; at 10 µM; stronger effect = higher value; submaximal glutamate (EC20) added with thallium.
Chain of UniProt P70579 (P70579 whole entry, looked up): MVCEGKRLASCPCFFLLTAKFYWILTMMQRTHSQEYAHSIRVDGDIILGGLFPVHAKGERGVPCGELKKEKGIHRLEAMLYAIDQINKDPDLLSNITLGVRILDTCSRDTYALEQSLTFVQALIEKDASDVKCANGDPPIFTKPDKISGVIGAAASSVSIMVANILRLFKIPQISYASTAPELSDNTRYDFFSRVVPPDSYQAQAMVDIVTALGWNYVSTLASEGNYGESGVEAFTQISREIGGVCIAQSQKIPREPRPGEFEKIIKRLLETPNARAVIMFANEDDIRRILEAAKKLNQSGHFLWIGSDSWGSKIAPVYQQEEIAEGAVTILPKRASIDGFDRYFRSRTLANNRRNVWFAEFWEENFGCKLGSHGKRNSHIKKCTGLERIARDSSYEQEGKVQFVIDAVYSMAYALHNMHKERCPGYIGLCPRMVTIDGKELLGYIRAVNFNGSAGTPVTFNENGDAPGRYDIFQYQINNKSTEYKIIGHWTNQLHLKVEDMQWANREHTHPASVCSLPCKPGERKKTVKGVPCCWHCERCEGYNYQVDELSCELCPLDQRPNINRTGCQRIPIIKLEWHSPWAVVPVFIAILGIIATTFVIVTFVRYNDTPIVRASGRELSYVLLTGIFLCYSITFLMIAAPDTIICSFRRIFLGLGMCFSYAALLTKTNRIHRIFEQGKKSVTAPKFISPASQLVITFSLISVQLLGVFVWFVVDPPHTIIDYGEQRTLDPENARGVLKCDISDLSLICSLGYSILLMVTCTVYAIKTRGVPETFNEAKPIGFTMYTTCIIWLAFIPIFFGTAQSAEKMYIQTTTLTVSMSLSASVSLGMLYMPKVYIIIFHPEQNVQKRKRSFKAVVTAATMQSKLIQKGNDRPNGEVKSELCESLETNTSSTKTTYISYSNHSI

| Structure (SMILES) | z-score |
| --- | --- |
| O=C(Nc1ccc(N2CCN(C(=O)c3ccc(Cl)cc3)CC2)cc1)c1cc2ccccc2o1 | -0.0928 |
| CN1C(=S)SC(/[N+]([O-])=C\c2ccco2)C1(C)C (stereo not given) | 0.403 |
| Cc1ccccc1NC(=S)NN1CCN(C)CC1 | 0.228 |
| O=C(CSc1nnc(-c2ccccc2)o1)Oc1ccc(Br)cc1 | -0.623 |
| CCOC(=O)c1cnc2c(C)cccc2c1Nc1ccc(N2CCOCC2)cc1 | -0.568 |
| Cc1ccc(C(=O)N2CCCC(c3nc4c(nnn4Cc4ccccc4)c(=O)[nH]3)C2)cc1 (stereo not given) | -0.0272 |
| O=C(Nc1ccccc1)Nc1nnc(-c2ccccc2)o1 | -0.193 |
| O=C(CSc1cn(CCNC(=O)c2cccs2)c2ccccc12)NC1CCCC1 | -0.245 |
| CN(CCCNC(=O)c1cn(C)c2ccc(S(=O)(=O)N(C)C)cc2c1=O)c1ccccc1 | -0.947 |
| CCOc1ccc(-n2c(Cc3cc(=O)[nH]c(=O)[nH]3)nnc2SCC(=O)NC2CCCC2)cc1 | 0.0889 |
| CCN(Cc1ccccc1)c1ccc(N=Nc2nn(C)c(C)c2[N+](=O)[O-])cc1 | -0.00804 |
| CC1(C)CC(=O)c2cc(OCC(=O)NCCCN3CCN(c4ccccc4F)CC3)ccc2O1 | -0.214 |
| CC(C)CN(C(=O)CN1CCN(S(=O)(=O)c2ccc3ccccc3c2)CC1)c1c(N)n(CC(C)C)c(=O)[nH]c1=O | -0.618 |
| COC(=O)c1ccccc1Nc1ccccc1 | -0.166 |
| COc1ccc(NC(=O)C2(c3ccc(NC(=O)c4ccc(OC)cc4)cc3)CCCC2)cc1 | -0.668 |
| N#C/C(=C\c1ccc(-c2ccc([N+](=O)[O-])cc2Br)o1)C(=O)N1CCN(c2ccccc2)CC1 | -0.281 |
| CCn1nnc(-c2ccccc2NC(=O)c2cc(OC)cc(OC)c2)n1 | -0.139 |
| Oc1ccc(N=Nc2n[nH]c(-c3ccccc3)n2)cc1 | -0.716 |
| Cc1cccc2c(Cl)cc(=O)[nH]c12 | -0.111 |
| c1ccc(-c2nnnc3ccccc23)cc1 | -0.0458 |
| O=C(c1ccccc1)N1CCN=C1c1ccccc1 | -0.0705 |
| Cc1ccc(NC(=O)CN(c2ccccc2F)S(C)(=O)=O)cc1 | -0.00294 |

| Structure (SMILES) | z-score |
| --- | --- |
| Cc1cccc(CCNC(=O)C2CCC(CNc3c(N4CCCC4)c(=O)c3=O)CC2)c1 (stereo not given) | -0.262 |
| CCN1C(=O)CC(N2CCN(c3ccc(OC)cc3)CC2)C1=O (stereo not given) | -0.889 |
| CCOC(=O)CSc1nnc(Cn2nnc(-c3ccccc3)n2)n1CC | -0.507 |
| COc1cccc(-n2nnnc2SCC(=O)Nc2ccc3c(c2)OCCO3)c1 | -0.0922 |
| COc1cccc(Nc2ncnc3nc[nH]c23)c1 | -0.409 |
| COc1ccc2ccccc2c1/C=N/NC(=S)Nc1cc(S(=O)(=O)N2CCOCC2)ccc1N1CCOCC1 | -0.538 |
| COc1ccc(C(=O)CC(Nc2ccc([N+](=O)[O-])cc2)c2ccc(Cl)cc2)cc1 (stereo not given) | -0.0244 |
| CC(SCc1ccccc1)C(=O)NN=C1CCN(C)CC1 (stereo not given) | -0.315 |
| COC(=O)c1c(NC(=S)Nc2ccccc2Cl)sc(C)c1C | 0.827 |
| O=C(COc1cccc(Cl)c1)Nc1nc(-c2ccc(S(=O)(=O)N3CCOCC3)cc2)cs1 | -0.0049 |
| O=C1Nc2ncccc2OC1CCO (stereo not given) | 0.0395 |
| Nc1c(C(=O)c2ccccc2)oc2ccccc12 | -0.433 |
| O=c1c2ccccc2c(-c2ccccc2)nn1Cc1ccccc1 | -1.25 |
| Cc1cc(C(C)(C)C)c(O)c(C)c1CC1=NCCN1 | 0.56 |
| O=C(NC(=S)NCc1cccnc1)c1ccccc1[N+](=O)[O-] | -0.0397 |
| COCc1cc(C)nc2sc3c(=O)n(-c4cccc5ccccc45)nnc3c12 | 0.206 |
| CCOC(=O)N1CCN(S(=O)(=O)c2cccs2)CC1 | 0.106 |
| CC1C=CC(C)C(C(=O)O)C1C(=O)O (stereo not given) | 0.461 |
| Cc1cc(C)n(C(=O)c2ccc(C)c(S(=O)(=O)N3CCCC3)c2)n1 | -0.143 |
| Cc1cc(C)n(C(=O)c2ccccc2[N+](=O)[O-])n1 | -0.188 |
| COC(=O)c1sccc1NC(=O)CSc1nnnn1-c1ccccc1F | -0.634 |
| CCOc1ccc(N2C(=O)C3CCCN3C2=O)cc1 (stereo not given) | 0.418 |

| Structure (SMILES) | z-score |
| --- | --- |
| Cc1ccc(SCc2cc(=O)n3[nH]c(C)nc3n2)cc1 | -0.153 |
| CCOC(=O)C1CCN(c2c(NCc3ccc(C(=O)NCCC(C)C)cc3)c(=O)c2=O)CC1 | -0.0475 |
| Cc1ccc(Cn2c(CN3CCOCC3)nc3c2c(=O)[nH]c(=O)n3C)cc1 | -0.0778 |
| Cc1ccc(S(=O)(=O)CCc2nnc(NC(=O)COc3cccc(C)c3)s2)cc1 | -0.284 |
| CCOc1ccc(OCC)c(NC(=O)C2CCN(S(=O)(=O)c3c(C)noc3C)CC2)c1 | -0.391 |
| O=C(Nc1ccccc1F)c1ccc(CSc2ccccc2)o1 | -0.43 |
| O=C(NCS(=O)(=O)c1ccccc1)c1ccccc1 | 0.54 |
| COC(=O)C1=C(C)N(Cc2ccc(OC)c(OC)c2)C(=O)C1 | -0.311 |
| Cc1cccc(-n2ncc3c(NCc4cccs4)ncnc32)c1 | -0.705 |
| Cc1cc2nc(/N=C(\N)NC(=O)N3c4ccccc4Sc4ccccc43)nc(C)c2cc1C | -0.275 |
| Cc1ccc(-c2cc(C(=O)NCc3cccs3)no2)cc1 | -0.229 |
| CCOc1ccc(S(=O)(=O)NCC2CCCO2)cc1 (stereo not given) | -0.242 |
| O=C(N/N=C/c1ccc[nH]1)c1sc2ccccc2c1Cl | 1.36 |
| Cc1cc(C(=O)NCc2ccccc2F)cs1 | -0.288 |
| CCn1c(SCCC(=O)Nc2ccccc2)nnc1-c1ccc(OC)cc1 | 0.0208 |
| O=C(Nc1ccc2c(c1)OCCO2)C1CCN(c2cnccn2)CC1 | 2.51 |
| CCOc1cccc(Oc2ccc(C(F)(F)F)cn2)c1 | -0.348 |
| CCOC(=O)CC1=C(C(=O)OCC)C(c2ccc(OC)c(OC)c2)C(C#N)=C(N)O1 (stereo not given) | 0.0332 |
| CCOC(=O)c1c(NC(=O)CSc2nnnn2-c2ccc3c(c2)OCCO3)sc(C)c1C | -0.255 |
| O=C(NC1CCCCC1)C1CCN(S(=O)(=O)c2cccc3cccnc23)CC1 | -0.107 |
| Cc1ccc(C)c(NC(=O)c2cc3ccccn3n2)c1 | 1.35 |
| O=C(Cc1ccccc1)NC(NNc1ccccc1)(C(F)(F)F)C(F)(F)F | -0.447 |

| Structure (SMILES) | z-score |
| --- | --- |
| COC(=O)CN(n1cnnc1)S(=O)(=O)c1ccc(C)cc1 | 0.214 |
| Clc1ccc(-c2cc(CSc3ccccc3)on2)cc1 | -0.0829 |
| CCCC(=O)NC(C)C(c1cccs1)N1CCN(c2ccccc2)CC1 (stereo not given) | 0.275 |
| Cc1cccc(NC(=O)c2ccc([N+](=O)[O-])cc2Cl)n1 | -0.0529 |
| COc1ccc(CN2CCNC(=O)C2CC(=O)O)c(OC)c1 (stereo not given) | 0.235 |
| CSc1nc(-c2ccccc2)nc2[nH]ccc(=O)c12 | -0.134 |
| O=C(CSc1nnc(-c2ccccc2)n1Cc1ccco1)Nc1ccc2c(c1)OCCO2 | 0.217 |
| O=C(c1cccs1)N(Cc1ccccn1)Cc1ccco1 | -0.0776 |
| Cc1ccc(NC(=O)/C(=C/c2cccc(Br)c2)NC(=O)c2ccco2)cc1 | -0.0217 |
| COC(=O)c1nn(-c2cccc(C(F)(F)F)c2)c(=O)cc1Sc1ccccn1 | -0.255 |
| O=C(N=Nc1c(O)n(Cc2ccccc2)c2ccccc12)c1ccc(O)cc1 | -0.143 |
| Cc1sc2nc(CN3CCCC3)nc(N3CCC(C(N)=O)CC3)c2c1C | -0.212 |
| COc1ccc(C(=O)NCC(=O)N=Nc2c(O)n(Cc3ccccc3)c3ccccc23)cc1OC | -0.274 |
| Cc1cnc(NC(=O)COc2ccccc2Cl)s1 | active: 3.06 |
| CC1C/C(=C\c2cccnc2)C(=O)/C(=C/c2cccnc2)C1 (stereo not given) | -0.0889 |
| CCOC(=O)c1c(C)[nH]c(C(=O)COC(=O)COc2ccc(OC)cc2)c1C | 0.344 |
| O=[n+]1cc(-c2cccc3ccccc23)n([O-])c2c1CCC2 | -0.0689 |
| Cc1cccc(NC(=O)c2ccccc2[N+](=O)[O-])n1 | -0.229 |
| CN(C)c1ccc(-c2nnn(Cc3ccccc3Br)n2)cc1 | -0.142 |
| O=C(NCCN1CCOCC1)c1ccc([N+](=O)[O-])cc1[N+](=O)[O-] | 0.0637 |
| Cc1ccc(S(=O)(=O)/C(C#N)=C/c2c(N3CCOCC3)nc3ccccn3c2=O)cc1 | -0.398 |
| CC(=O)Nc1cccc(OCC(=O)Nc2ccc(F)cc2)c1 | 0.0737 |

| Structure (SMILES) | z-score |
| --- | --- |
| Cn1nnnc1SCC(=O)Nc1ccccc1[N+](=O)[O-] | -0.196 |
| O=C(OCc1ccccc1)c1ccc(Br)o1 | 0.158 |
| Cc1cc2cccc(C)c2nc1SCC(=O)N(C)c1nc(-c2ccccc2)cs1 | 0.00775 |
| CCC(=O)Nc1cccc(-c2nc3ccccc3o2)c1 | -1.43 |
| O=C(Nc1ccc(Oc2nnc(-c3ccccc3)c3ccccc23)cc1)c1ccccc1 | 0.0138 |
| Cn1c(=O)c(NC(=O)c2ccccc2)c2n(c1=S)CCCCC2 | -0.181 |
| CCOc1ccc(Nc2nc(Cc3nnc(SCC(=O)c4ccc(C)c(C)c4)o3)cs2)cc1 | 0.217 |
| Cc1ccccc1NC(=O)N1C2CCCC1CC(NC(=O)C1CC1)C2 (stereo not given) | 0.864 |
| CC(NCc1cccn1C)c1ccccc1 (stereo not given) | -0.0825 |
| CC1CCc2c(sc(NC(=O)c3ccc(-c4ccccc4[N+](=O)[O-])o3)c2C#N)C1 (stereo not given) | 0.0737 |
| Cc1ccc(-n2c(-c3ccco3)nc3c(cnn3-c3ccc(C)cc3)c2=O)cc1 | -0.0771 |
| FC(F)(F)c1nnc2c(Sc3ccccn3)nc3ccccc3n12 | 0.437 |
| CC(OC(=O)c1ccc2c(=O)n3c(nc2c1)CCCCC3)C(=O)Nc1ncc(Cl)cc1Cl (stereo not given) | -1.16 |
| C=CCN1C(=Nc2ccccc2)SC/C1=C\C(=O)OC | 0.502 |
| CC(C)Oc1cccc(C(=O)Nc2ccc(N3CCN(S(C)(=O)=O)CC3)cc2)c1 | -1.5 |
| Cc1cccc(NC(=O)N2CCCC2C(=O)NCc2cccs2)c1 (stereo not given) | 0.181 |
| CCSc1nnc2n(-c3ccc(OC)cc3)c(=O)c3c4c(sc3n12)CCCC4 | -0.94 |
| COc1cc([N+](=O)[O-])ccc1NC(=O)CCCOc1cccc(C)c1 | -0.442 |
| Cc1ccc(S(=O)(=O)n2nc(OC(=O)c3c(-c4ccccc4Cl)noc3C)cc2N)cc1 | -1.4 |
| Oc1ccc2ccccc2c1C=Nc1cc(C(F)(F)F)ccc1N1CCCC1 | -0.252 |
| Cc1ccc(NC(=O)c2onc(C)c2Cl)cc1 | -0.347 |
| CCOC(=O)c1c(NC(=O)C(C)N2CCN(C(=O)c3ccco3)CC2)sc2c1CCCC2 (stereo not given) | -0.531 |
